# Screen size: about 140,000 compounds; about 240 (0.17%) were called active. This list was built around the results that the source calls inconclusive (neither active nor inactive); the mix of calls is not that of the screen. Calls follow the shape of the dose curve; as a rule, active = well fitted inhibition curve with a large enough effect; inconclusive = small, poorly fitted or top-dose-only effect; inactive = no such curve, though single readings can be large or run the other way. Potencies beside an inconclusive call are fits to weak or partial responses and may not hold up.
# Test: Primary qHTS assay for inhibitors of alpha-synuclein gene (SNCA) expression; also: nearly all actives have a fitted effect of over 45% in size
# Conditions: HEK-293 SNCA-luciferase knock-in, luminescence, 24 h; series mostly up to 57.2 µM
# Potency is read from the fitted curve at half-maximal effect; tags tell the direction and shape of the fitted curve.
row,Structure (SMILES),Potency
1,CC(C)(CC1Cc2ccccc2C1)NC(=O)C1CC2(CCNCC2)CN1 (stereo not given),inactive
2,CC(C)c1noc(-c2cn(C3CCCN(C(=O)c4ccncc4)C3)nn2)n1 (stereo not given),inactive
3,COc1ccc(CNC(=O)C(=O)NCC(c2ccco2)S(=O)(=O)c2ccc(C)cc2)cc1 (stereo not given),"inconclusive: 7.08 µM [inhibitor, single point]"
4,COc1ccc2[nH]c(C(=O)N3C[C@@H](CO)[C@H](c4ccncc4)C3)cc2c1,inactive
5,COc1ccc(C(NC(=O)c2cccc(-n3cnnc3)n2)C2CC(O)C2)cn1 (stereo not given),"inconclusive: 8.91 µM [inhibitor, partial curve, poor fit]"
6,O=C(CN1C(=O)NC(c2ccc(Cl)cc2)C2=C1COC2=O)Nc1cc(F)ccc1F (stereo not given),inactive
7,COc1cccc(CC(=O)N2CCC(CC(=O)NCc3ccccc3)C2)c1 (stereo not given),"inconclusive: 25.1 µM [inhibitor, single point]"
8,Cc1ccc(C)c(Nc2nc3nonc3nc2Nc2cccc(C)c2C)c1,"inconclusive: 15.8 µM [inhibitor, partial curve, poor fit]"
9,O=C(c1ccccc1OCC1CCCN(Cc2ccc3[nH]ccc3c2)C1)N1CCCC1 (stereo not given),inactive
10,COc1ccc(/C=C/c2nc3ccccc3c(=O)n2-c2cccc(C(F)(F)F)c2)cc1,"inconclusive: 0.199 µM [inhibitor, full curve, poor fit]"
11,O=C(O)Cn1ccc2cc(OCc3cccc(-c4cccc(C(F)(F)F)c4)c3)cnc21,inactive
12,COc1ccc(-c2ccc3nc(-c4ccc(F)c(C)c4)oc3c2)c(OC)c1OC,inactive
13,O=c1cnc2cncnc2n1Cc1ccc(F)cc1,"inconclusive: 3.55 µM [inhibitor, partial curve, poor fit]"
14,CCCCCNC(=O)CCn1c(=O)[nH]c2ccccc2c1=O,"inconclusive: 7.08 µM [inhibitor, single point]"
15,Cc1ccc(Cl)cc1N1CCN(C(=O)CN2CC3CC(C2)[C@H]2CCCC(=O)N2C3)CC1 (stereo not given in full),"inconclusive: 31.6 µM [inhibitor, single point]"
16,Cc1ccc(OCC(=O)Nc2ccc3nc(Nc4cccc(Cl)c4)cc(C)c3c2)cc1,"inconclusive: 17.8 µM [inhibitor, partial curve]"
17,COc1ccc(-c2nc3sc(CCNS(=O)(=O)c4ccc(F)c(C)c4)c(C)n3n2)cc1,"inconclusive: 39.8 µM [inhibitor, single point]"
18,CC[C@@]1(O)CCN(C(=O)c2cnc(N3CCOCC3)nc2)C[C@H]1O,"inconclusive: 28.2 µM [inhibitor, single point]"
19,O=C(Nc1cccc(C(F)(F)F)c1)Nc1nnc(N2CCCCC2)s1,"inconclusive: 39.8 µM [inhibitor, single point]"
20,O=C(O)C1CN(c2nccc(N3CCC(O)CC3)n2)CCN1 (stereo not given),"inconclusive: 39.8 µM [inhibitor, single point]"
21,Cc1ccc(NC(=O)C2CCN(c3cc(C(F)(F)F)ncn3)CC2)cc1Cl,inactive
22,COc1ccc(C(=O)NC[C@H]2O[C@@H](CC(=O)N3CCN(c4ccccc4OC)CC3)[C@H](O)[C@@H]2O)cc1,inactive

row,Structure (SMILES),Potency
1,COc1ccc(N(C(=O)COc2ccccc2OC)S(=O)(=O)c2ccc(Cl)cc2)cc1,"inconclusive: 31.6 µM [inhibitor, single point]"
2,O=C(c1ccccc1)n1nc(-c2ccco2)nc1NCc1ccccc1Cl,inactive
3,CC(C)NC(=O)C[C@@H]1O[C@H](CNS(C)(=O)=O)[C@@H](O)[C@H]1O,inactive
4,O=C(CCCn1ccc2cc(S(=O)(=O)N3CCCC3)ccc21)NCc1ccc(Cl)cc1,"inconclusive: 1.78 µM [inhibitor, partial curve, poor fit]"
5,COc1ccc(OC)c(CNC(=O)C2(CCO)CCN(c3ncccn3)C2)c1 (stereo not given),inactive
6,CCN1c2cc(C(=O)NCc3ccc(F)cc3Cl)ccc2C(=O)N2CCCCC21 (stereo not given),"inconclusive: 39.8 µM [inhibitor, single point]"
7,CCOC1CCOC2(CCN(C(=O)c3n[nH]c4ccccc34)CC2)C1 (stereo not given),"inconclusive: 8.91 µM [inhibitor, single point]"
8,Cc1nn2c(c1-c1cccnc1N1CCOCC1)N(C(=O)Cc1ccc(Cl)cc1)CCC2,"inconclusive: 20 µM [inhibitor, partial curve, poor fit]"
9,Cc1cccc2c1nc1n2[C@@H](CNCc2ccccc2)COC1,inactive
10,CC(=O)N1CCC(N2CCOC[C@H]2c2ncc(-c3ccc(C)cc3)[nH]2)CC1,inactive
11,CCOC(=O)C[C@@H]1C[C@@H](C(C)C)[C@H](CNC(=O)c2ccc(F)cc2)C=C1C,"inconclusive: 44.7 µM [inhibitor, partial curve, poor fit]"
12,O=C(Cc1ccc(F)cc1)N1CCN(C(=O)c2nnn3c2COC(c2ccc(Cl)cc2)C3)CC1 (stereo not given),inactive
13,COc1cccc(NC(=O)Cc2c[nH]c3ncc(-c4ccccc4C)cc23)c1,"inconclusive: 56.2 µM [inhibitor, single point]"
14,O[C@@H]1C[C@@H](c2nc(-c3ccc(F)cc3)no2)N(Cc2ccc(F)cc2)C1,inactive
15,CCOc1ccc(C(CC(=O)Nc2cc(C)c(Cl)cc2OC)N2Cc3ccccc3C2=O)cc1OC (stereo not given),"inconclusive: 7.94 µM [inhibitor, single point]"
16,COCCn1c(=O)cnc2cnc(N3CCNCC3)nc21,"inconclusive: 6.31 µM [inhibitor, single point]"
17,CN(C)c1cccc(C(=O)N2CCC3(CCCN(CC4CC4)C3)C2)c1 (stereo not given),inactive
18,O=C(c1cccc(-n2cnnc2)c1)N1CCCC(Nc2ccc(F)c(F)c2)C1 (stereo not given),"inconclusive: 3.16 µM [inhibitor, partial curve, poor fit]"
19,Cc1cccc(C(=O)NC2CCCN(Cc3ccc(-c4cc(C)cc(C)c4)cc3)C2)c1 (stereo not given),inactive
20,COCCOC1CCOC2(CCN(C(=O)c3cc(-c4ccc(F)cc4)n[nH]3)CC2)C1 (stereo not given),"inconclusive: 8.91 µM [inhibitor, full curve, poor fit]"
21,O=C(O)C1=CC(=C(c2ccc(O)c(C(=O)O)c2)c2ccc(O)c(C(=O)O)c2)C=CC1=O,inactive
22,CC(C)(C)c1ccc(-c2nc(S(=O)(=O)c3ccccc3)c(N3CCOCC3)o2)cc1,"inconclusive: 39.8 µM [inhibitor, single point]"

row,Structure (SMILES),Potency
1,COc1ccccc1Nc1ccnc(N2CCN([S+](=O)([O-])c3cccc(C(F)(F)F)c3)CC2)n1,"inconclusive: 17.8 µM [inhibitor, partial curve, poor fit]"
2,COc1ccc(CC(=O)Nc2ccc(=O)n3c2[C@@H]2C[C@@H](CN(C(=O)Nc4ccc(OC)cc4)C2)C3)cc1,"inconclusive: 39.8 µM [inhibitor, single point]"
3,COc1ccc(C(=O)N2CCN(CC3CC3)[C@@H]3CS(=O)(=O)C[C@@H]32)c(C)c1,inactive
4,CCCNc1cc(N2CCC(CCC(=O)NCCN3CCCCCC3)CC2)ncn1,"inconclusive: 20 µM [inhibitor, partial curve, poor fit]"
5,Cc1cccc(OCC(=O)N(Cc2ccc(C(C)C)cc2)Cc2ccco2)c1C,"inconclusive: 39.8 µM [inhibitor, single point]"
6,CCOC(=O)c1cc(-c2ccc(F)cc2)n(CCC(=O)NCc2ccccc2OC)c1C,"inconclusive: 39.8 µM [inhibitor, single point]"
7,COc1ccc(-n2nnc(-c3nc(-c4ccccc4C)no3)c2N)cc1Cl,"inconclusive: 7.08 µM [inhibitor, single point]"
8,CN(C)c1ccc(C(=O)NC2CCN(c3cc(-c4ccc(Cl)cc4)[nH]n3)C2)cc1 (stereo not given),inactive
9,O=C(NCCN1CCOCC1)c1ccc2oc(-c3ccncc3)nc2c1,"inconclusive: 2 µM [inhibitor, partial curve, poor fit]"
10,O=C(Nc1cc(Cl)ccc1Cl)c1cc(S(=O)(=O)N2CCCc3ccccc32)ccc1F,inactive
11,COc1cccc(-c2noc(CC3CCN(C(=O)c4ccc(C)cc4)CC3)n2)c1,"inconclusive: 1.78 µM [inhibitor, full curve, poor fit]"
12,Cc1ccc(C(C)NC(=O)c2cc(COc3ccccc3)[nH]n2)c(C)c1 (stereo not given),"inconclusive: 39.8 µM [inhibitor, partial curve, poor fit]"
13,CCOC(=O)C1CCCN(Cc2cn3c(-c4ccc(Br)cc4)nnc3s2)C1 (stereo not given),inactive
14,CCc1cnn2c(NCc3ccc[n+]([O-])c3)cc(N3CCCC[C@@H]3CCO)nc12,active: 0.0607 µM
15,COc1ccc(-n2c(=O)c3c(n2Cc2ccccc2)CN(C(=O)C2CCCO2)CC3)cc1 (stereo not given),inactive
16,CC(C)c1ccc(S(=O)(=O)N2CCCC2Cc2noc(Cc3ccccc3)n2)cc1 (stereo not given),"inconclusive: 0.708 µM [inhibitor, single point]"
17,COc1ccc2[nH]c(=O)c(CCC(=O)N(C)CCc3ccccc3)cc2c1,"inconclusive: 28.2 µM [inhibitor, single point]"
18,CCCN1CCN(c2ncnc3sc(C(=O)Nc4cccc(Cl)c4C)c(C)c23)CC1,"inconclusive: 14.1 µM [inhibitor, single point]"
19,Cc1ccc2[nH]c(=O)c(CCC(=O)NC(C)C)cc2c1,"inconclusive: 8.91 µM [inhibitor, single point]"
20,Cn1cc(CC(=O)N2CCCc3ncc(C(=O)N4CCCC[C@@H]4Cc4ccccc4)cc32)c2ccccc21,"inconclusive: 2.24 µM [inhibitor, full curve]"
21,COc1ccc(Cl)cc1NC(=O)Cn1cccc1-c1nc(-c2ccccc2)no1,"inconclusive: 35.5 µM [inhibitor, single point]"
